Measured values: PMC4336329 (PLoS ONE, 2015)
Out of some 310,000 compounds screened, about 2,200 (0.71%) showed an effect of 50% or more. The effect is printed as a negative number. The list shows a part of the results.

target: human ether-à-go-go-related gene (hERG) potassium channel (human, UniProt Q12809); experiment: primary screen, population patch clamp on CHO cells stably expressing hERG
Sequence (Q12809 whole entry, looked up): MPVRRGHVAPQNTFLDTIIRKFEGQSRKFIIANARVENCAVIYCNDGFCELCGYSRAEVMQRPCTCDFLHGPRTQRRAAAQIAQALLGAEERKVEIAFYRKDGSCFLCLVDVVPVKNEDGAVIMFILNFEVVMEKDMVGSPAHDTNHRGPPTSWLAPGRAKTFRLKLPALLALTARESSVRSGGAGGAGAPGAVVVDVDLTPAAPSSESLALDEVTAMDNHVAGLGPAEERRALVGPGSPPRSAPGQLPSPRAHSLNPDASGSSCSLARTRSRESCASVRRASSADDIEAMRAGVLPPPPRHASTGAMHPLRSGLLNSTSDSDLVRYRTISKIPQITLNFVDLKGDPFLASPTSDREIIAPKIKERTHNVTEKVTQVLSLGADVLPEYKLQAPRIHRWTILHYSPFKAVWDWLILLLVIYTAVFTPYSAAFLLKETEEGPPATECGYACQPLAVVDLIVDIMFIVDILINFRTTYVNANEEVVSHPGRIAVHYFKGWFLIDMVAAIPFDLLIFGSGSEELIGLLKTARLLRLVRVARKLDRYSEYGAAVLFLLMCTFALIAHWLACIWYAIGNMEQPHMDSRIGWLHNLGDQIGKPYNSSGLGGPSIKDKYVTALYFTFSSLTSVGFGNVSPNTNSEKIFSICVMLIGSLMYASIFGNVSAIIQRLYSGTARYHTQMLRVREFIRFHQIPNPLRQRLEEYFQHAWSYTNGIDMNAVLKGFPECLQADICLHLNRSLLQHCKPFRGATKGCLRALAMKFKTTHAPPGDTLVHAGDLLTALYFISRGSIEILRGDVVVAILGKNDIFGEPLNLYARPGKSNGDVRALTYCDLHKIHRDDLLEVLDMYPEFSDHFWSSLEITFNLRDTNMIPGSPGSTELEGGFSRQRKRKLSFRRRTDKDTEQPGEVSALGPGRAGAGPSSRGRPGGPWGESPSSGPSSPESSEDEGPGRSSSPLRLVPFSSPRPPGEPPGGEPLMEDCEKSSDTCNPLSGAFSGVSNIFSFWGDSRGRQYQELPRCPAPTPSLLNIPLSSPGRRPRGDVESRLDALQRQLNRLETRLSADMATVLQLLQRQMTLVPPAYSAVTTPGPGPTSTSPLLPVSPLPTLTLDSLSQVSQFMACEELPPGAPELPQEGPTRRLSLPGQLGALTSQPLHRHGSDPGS

Row | SMILES | hERG current change (%, negative = inhibition) at 1uM [%]
1 | O=C1N=c2ccc(Br)cc2=C1c1sc(=O)[nH]c1O | 17.2
2 | Cc1cccc(Nc2cnn(C34CC5CC(CC(CC(=O)O)(C5)C3)C4)c(=O)c2Cl)c1 | 6.75
3 | COc1ccc(S(=O)(=O)N(C)C)cc1NC(=O)c1ccc(OCC(=O)N2CCOCC2)c(OC)c1 | -0.106
4 | CC1CCN(C(=O)COC(=O)Cn2cnc3c2c(=O)n(C)c(=O)n3C)CC1 | 17.6
5 | COc1ccc(Br)c(C(=O)N(C)CC(=O)Nc2ccc(N3CCOCC3)cc2)c1 | -6.73
6 | NS(=O)(=O)c1ccc(NC(=O)CSc2nc3ccccc3n2-c2ccccc2)cc1 | 16.8
7 | CN(CC(=O)Nc1ccc(F)cc1)CC(=O)N1CCCC1 | 7.78
8 | O=C(CSc1ccccn1)Nc1nc2ccc(Br)cc2s1 | 7.09
9 | CCOC(=O)CSc1nc2c(sc(=S)n2-c2ccc(CC)cc2)c(=O)[nH]1 | 12.1
10 | O=C(c1n[nH]c(=O)c2ccccc12)N1CCN(Cc2ccc3c(c2)OCO3)CC1 | 3.53
11 | CC(=O)N1CCN(S(=O)(=O)c2cccc(C(=O)OCC(=O)NC(=O)c3cccn3C)c2)CC1 | 5.26
12 | O=C(NCCc1nc2ccccc2[nH]1)c1cccc(Br)c1 | -5.27
13 | O=C(COC(=O)c1cccs1)NCc1ccc2c(c1)OCO2 | -2.63
14 | CCCC(=O)N1c2ccccc2C(=C2SC(C(=O)OC)=C(C(=O)OC)S2)C(=S)C1(C)C | 0.445
15 | O=C(N/N=C\C=C\c1ccco1)c1cncc(Br)c1 | 25.1
16 | COC(=O)c1cc(C(=O)OCC(=O)N(C)C2CCS(=O)(=O)C2)cc([N+](=O)[O-])c1 (stereo not drawn) | 0.39
17 | COc1ccc2cc(C3CC(c4cccs4)=NN3S(C)(=O)=O)c(Cl)nc2c1 (stereo not drawn) | 1.82
18 | CCc1nnc(NC(=O)CSc2nnc(CNc3ccc(C)cc3)n2C)s1 | 9.92
19 | CCCn1c(C(O)c2ccc(OC)c(OC)c2)nc2ccccc21 (stereo not drawn) | 12.4

Row | SMILES | hERG current change (%, negative = inhibition) at 1uM [%]
20 | O=c1[nH]nc(SCCS(=O)(=O)c2ccc(F)cc2)n1-c1ccccc1 | 6.77
21 | Cc1c(CN(C)C(=O)c2sc3cc(Cl)ccc3c2Cl)cnn1C | -18.3
22 | Cc1nnc(SC(C)C(=O)Nc2nccs2)s1 (stereo not drawn) | 21.7
23 | Cc1ccccc1OCCN1C(=O)NC2(CCCc3ccccc32)C1=O (stereo not drawn) | -4.06
24 | Cc1cc(OCC(=O)O)c2c3c(c(=O)oc2c1)CCCC3 | 15.1
25 | N#Cc1ccc(NC(=O)c2nc(-c3ccccc3)n(-c3ccccc3)n2)cc1 | -15.4
26 | O=C(Nc1cccc(S(=O)(=O)NC2=NCCC2)c1)c1cc(-c2ccco2)nc2ccccc12 | 13.8
27 | COc1ccccc1N(C(C)=O)C1SC(=O)N(c2ccccc2)C1=O (stereo not drawn) | 21.3
28 | COc1ccc(CN2c3cc(S(=O)(=O)N4CCOCC4)ccc3N3CCCC32)cc1 (stereo not drawn) | -2.41
29 | O=C(Nc1ccc(N2CCCC2)cc1)c1cccc(F)c1 | 2.14
30 | CCn1c(CNC(=O)c2ccco2)nnc1SCC(=O)Nc1cc(F)ccc1C | 9.23
31 | COc1ccc2nc(-n3c(O)c(C4=c5ccccc5=NC4=O)[nH]c3=S)sc2c1 | 11.4
32 | O=C(O)COc1ccc(/C=C2/SC(=S)N(Cc3ccccc3)C2=O)cc1 | 14.9
33 | CC1=NN(c2ccc([N+](=O)[O-])cc2)C(=O)/C1=C\N(C)C | 5.09
34 | Cc1ccc(SSc2cc(C)ccc2N)c(N)c1 | 5.57
35 | Cc1c(/C=N/NC(N)=O)c2ccccn2c1C(=O)c1ccc(F)cc1 | 4.11
36 | Cc1cc(C)n2c(SCCO)nnc2n1 | 15.2
37 | O=[N+]([O-])c1ccc(Nc2nc(N/N=C\c3ccc4c(c3)OCO4)nc(N3CCCCC3)n2)cc1 | 8.42
38 | CC1C(=O)N2CCCc3cc(NS(=O)(=O)c4ccccc4)cc1c32 (stereo not drawn) | 10.8

Row | SMILES | hERG current change (%, negative = inhibition) at 1uM [%]
39 | COc1ccc(C(CNC(=O)Nc2ccccc2)N2CCN(C)CC2)cc1 (stereo not drawn) | -0.81
40 | CCNC(=O)c1ccccc1SCC(=O)Nc1ccc(F)cc1 | 2.1
41 | COc1ccc(C(C(=O)NC2CCCC2)N(CCO)C(=O)Cn2nnc(-c3ccc(C)o3)n2)cc1 (stereo not drawn) | 13.2
42 | CCOc1nc(N2CCOCC2)nc(N2CCOCC2)n1 | 23
43 | COc1ccccc1N1CCN(C(=O)CSc2nc3ccccc3c(=O)n2CC2CCCO2)CC1 (stereo not drawn) | -16
44 | COc1ccc(N2C(=O)CCC2=O)c(OC)c1 | 8.08
45 | CSc1ccc(CCNC(=O)C2CCCN(c3nn4c(=O)cc(C)nc4s3)C2)cc1 (stereo not drawn) | 4.39
46 | O=C(COC(=O)c1ccccc1O)Nc1cccc(S(=O)(=O)NC2=NCCCCC2)c1 | 12.3
47 | CCCn1nnnc1SCC(=O)N1CCCCC1 | 12.1
48 | CCOc1ccc(NC(=S)NC(=O)c2ccco2)cc1 | 13
49 | Cc1cc(C)nc(Nc2ccc(C)c([N+](=O)[O-])c2)n1 | 16.2
50 | CCOC(=O)N1CCN(C(=O)CCN2C(=O)COc3ccccc32)CC1 | 3.45
51 | CCCn1nnnc1NC(=O)COc1ccc(Cl)cc1C | 0.821
52 | O=S(=O)(c1ccc(N2CCN(Cc3ccccc3)CC2)nc1)N1CCCC1 | -3.39
53 | COc1ccc(N2C(=O)C(CC(=O)Nc3ccccc3)N(Cc3cccs3)C2=O)cc1 (stereo not drawn) | 9.7
54 | CC(C)(C)OC(=O)NCCCCCO | 15.2
55 | CN1OC(COC(=O)c2ccc(Cl)cc2Cl)CC1c1ccccc1 (stereo not drawn) | 10.8
56 | Cc1cc(OCCCCn2ccnc2)cc(C)c1Cl.Cl | 10.7
57 | CN(C)CCCNC(=O)c1ccc(Oc2ccccc2)cc1.Cl | 17.6
